# Assay results taken from the supplement of paper PMC3334620.
# In all, about 33,000 sequences were measured (“E-score (-0.5 to 0.5)”: median about -0.054, highest 2% from about 0.39 on). Some of the results follow.
# Molecular target: Ylr278c (UniProt Q05854)
# Test: PBM E-score (8-mer binding enrichment) (E-score (-0.5 to 0.5)); higher = stronger / more preferred TF binding; most listed sequences are background and not binding sites
# Details: protein concentration: 200 nM; construct: GST-DNA-binding domain
# Experimental: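 Universal 'all 10-mer' protein binding microarrays (Agilent AMADID 015681) probed with GST-tagged S. cerevisiae TFs (full-length or DBD) made by in vitro transcription/translation (PURExpress), about 100-200 nM. Bound TF was detected with fluorescent anti-GST. Each ungapped 8-mer (which stands for itself and its reverse complement) is scored by the PBM enrichment score (E-score), a modified Wilcoxon-Mann-Whitney statistic from -0.5 to +0.5, computed with the Universal PBM Analysis Suite. Scale: above 0.35 generally sequence-specific binding.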
row,Sequence,PBM E-score
1,CCTGTTGC,-0.0124
2,GGGTCTCA,-0.12
3,AGCTGCAA,-0.122
4,ACCGACTA,0.108
5,CGATTTGA,-0.059
6,GACCCCGA,0.336
7,GGGTGGAC,-0.0268
8,GAACTCCC,0.218
9,GGGCCTCA,0.0262
10,GGAGCTTA,0.098
11,ACTTTATC,0.0391
12,CAAACGCC,0.203
13,CAGACGAC,-0.29
14,ACGTTAGA,-0.175
15,AAGTCACA,-0.146
16,CGCCGTTA,0.173
17,GGTTCCCA,-0.134
18,GGAATGAC,0.0815
19,GTCACGAC,-0.124
20,ATAACCAC,-0.116
21,CCCAACAG,-0.331
22,ATTGGAGC,0.00626
23,AAATCAGT,0.0231
24,GAACAGGA,-0.0691
25,ATGTCTAA,-0.288

row,Sequence,PBM E-score
1,AGTGATAC,-0.117
2,CCTCCACA,-0.185
3,CAAGTTGC,0.111
4,GTGCCTTA,-0.129
5,AGTACCTC,-0.223
6,GTTTAACA,-0.121
7,GGCTTCCC,0.00141
8,AGGTCGAT,0.121
9,GATACGAC,-0.163
10,ACTCTTAG,-0.291
11,GATCTCCA,0.0507
12,ATCCGCCA,0.196
13,GATATCGA,-0.0661
14,GAACCAAC,-0.11
15,ACGTTCAT,-0.195
16,AAGAATCT,-0.128
17,GACACCCA,-0.146
18,GGGCCAGA,0.0393
19,AAATACAT,-0.199
20,ACAACTGC,-0.159
21,AGGGACCT,-0.202
22,ATGATCTG,-0.16
23,CAACATCC,0.143
24,CGACAAGC,-0.0245
25,CGCTGTGC,0.105

row,Sequence,PBM E-score
1,CCGGGAGC,0.228
2,CCAAAGTA,-0.0903
3,AGGCTGAG,-0.0804
4,CAAACCAC,-0.0918
5,ACATCAAT,-0.14
6,GAAGTTAA,-0.172
7,AATAACAC,0.122
8,GACCAAGC,-0.1
9,AAACCCAG,-0.223
10,ACATCAAC,0.05
11,CCACCAAG,-0.0986
12,GGACAAAC,0.0317
13,ATCAATGC,0.00566
14,AACATCCA,-0.0947
15,GAAAAGGA,-0.021
16,ATAGCCAG,-0.226
17,CCTGATCG,-0.0211
18,TCCTGCCA,-0.0528
19,GAGCTAAA,-0.104
20,AAATTGAT,0.148
21,ATTTGTGA,-0.111
22,ATGGAAAA,0.106
23,ACCTCCAA,-0.209
24,ACGGGTCA,-0.211
25,AGCCTGCG,-0.0735

row,Sequence,PBM E-score
1,GTCCCCAC,-0.142
2,GAGTGGTA,-0.205
3,ATGTCAAT,-0.012
4,AATCGAAC,-0.164
5,ATTTGGGA,-0.0715
6,ACGTGCCT,-0.156
7,ATCTTCGG,0.303
8,GTTACAAC,-0.123
9,AAACTAAT,0.105
10,ATCCCATC,-0.16
11,GACTAGAA,0.0394
12,CTTGGGTA,-0.244
13,ATCGGCGG,0.42
14,CGGACCCC,0.365
15,ACATCAGC,-0.0321
16,TATAGGAA,-0.192
17,GACTCACC,-0.121
18,GCCACTCA,-0.161
19,CTTCGAAC,-0.027
20,GTATCAGA,-0.0343
21,GGACTGCA,-0.0459
22,CAGTTGTC,-0.147
23,AGGATGGA,0.102
24,AGTACCCC,0.185
25,ATTGCAAT,0.0974

row,Sequence,PBM E-score
1,ATCGACAA,-0.0327
2,GGATAACA,0.0565
3,ACGTTCAA,-0.137
4,AGCATGTC,-0.119
5,ATATTAGG,-0.183
6,ATCAAAGA,-0.247
7,GATTCGGC,0.318
8,CCCTAGAG,-0.213
9,GCCTATCC,-0.00228
10,TAACGACA,-0.00904
11,GTAGCTCA,-0.043
12,CAGAGAGA,-0.24
13,ATAACTGG,-0.0346
14,GAAGGAGA,-0.0916
15,AAATCCAA,-0.0435
16,GGAGAACA,0.25
17,CAAACCTG,-0.0745
18,CTAGCAAG,-0.253
19,ACAATCCG,0.242
20,GGTAAAAC,0.0161
21,ATGGAGGA,-0.118
22,CTGAGCGA,-0.227
23,AGGGCGCA,-0.196
24,GAGGCCTA,-0.117
25,CACGTATC,-0.15

row,Sequence,PBM E-score
1,CAGGGTCA,-0.0682
2,CAAGGTGG,0.0341
3,CACAACGA,0.121
4,CCTTGTGA,-0.0667
5,CGCTGCCC,0.0603
6,CGGTTTCA,0.186
7,AGCTAAGG,-0.135
8,ACCACCAC,-0.0464
9,AGAAATTC,0.0638
10,AAATCGCA,0.0305
11,CAGTGCCG,0.235
12,GCAGATTA,0.0757
13,AATTATTC,0.128
14,CGGGGTAG,0.277
15,AAAGCTTT,0.154
16,AAAACAGT,0.0976
17,ACAGCCCG,0.0886
18,ATAGTCTC,-0.0855
19,ACTCAGAC,-0.249
20,AGTACGGA,0.303
21,AGTCTGAA,-0.292
22,ACGCCTTG,-0.162
23,AGAGAGAA,-0.242
24,AAAAGGCC,0.0509
25,CTGATGGA,-0.125

row,Sequence,PBM E-score
1,CAATAAAA,-0.151
2,CCGGCTGC,0.309
3,AATCTCTG,-0.198
4,AGAGGAAA,0.0225
5,CTGTAGAA,-0.131
6,GAGTCAGA,-0.00395
7,AACTCCGA,0.496
8,ACTAACAG,-0.116
9,CCAATTAA,-0.0658
10,AAAAACGG,0.201
11,AGTGTTAA,-0.0911
12,CCGTTATA,0.0394
13,ACACAGAG,-0.157
14,AGGACAAT,-0.0381
15,ATGCATTA,-0.0272
16,GATAGCAA,0.0259
17,ACTGAGCC,0.00565
18,ACAACGCG,0.118
19,GAGTGTAA,-0.188
20,AGGGAACC,-0.0743
21,CGATCCTA,-0.0225
22,GAGCTCGC,0.158
